# The whole screen tested about 420,000 compounds, of which about 50,000 (12%) were called active. The inconclusive results got no clear call from the source; some entries with a clear call stand among them for comparison. The call rests on the fitted dose curve; in most records, active means well fitted inhibition curve with a large enough effect; inconclusive means small, poorly fitted or top-dose-only effect; inactive means flat fitted curve, though single readings scatter. No potency is given beside an inconclusive call; the fits are too rough.
# Test: qHTS for Inhibitors of human tyrosyl-DNA phosphodiesterase 1 (TDP1): qHTS in cells in presence of CPT; further: nearly all actives have a fitted effect of over 55% in size
# Details: chicken DT40 Tdp1-/-;hTDP1 cells + 20 nM CPT, ATP luminescence, 48 h; activity change, negative = growth inhibition: at 46.2 µM (top of the series) unless noted
# Procedure, shortened: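 Cell growth measured by CellTiter-Glo luminescence after a minimum 48 h, 37 C compound exposure with 20 nM CPT in Tdp1-knockout DT40 cells stably expressing hTDP1, seeded 400/well; qHTS titration format.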
# On the % scale 0 is the no-effect control and ±100 the full control effect; potency means the concentration at half of the fitted maximal effect; tags describe the fitted curve by direction and shape.
SMILES,Potency,"activity change, negative = growth inhibition"
COc1ccc(-c2ccc(CN3C(CC(C)C)C(=O)N(Cc4cn(Cc5ccco5)nn4)CCS3(=O)=O)cc2)cc1 (stereo not given),active: 7.31 µM,–
Cc1[nH]c(N)nc(=S)c1CCCNc1ccccc1,"inconclusive [inhibitor, single point]",–
Cc1nc(N/N=C/c2cccnc2)cc(N2CCOCC2)n1,–,inconclusive: -30.3% [inhibitor]
O=c1ccc(S(=O)(=O)N2CCCC2)cn1Cc1nc(-c2ccc(F)cc2)no1,"inconclusive [inhibitor, single point]",–
O=[N+]([O-])c1ccc(Cl)cc1N1CCCCC1,"inconclusive [inhibitor, partial curve, poor fit]",–
Nc1ncnc2c1ncn2[C@@H]1O[C@H](CNCc2cccc(C#Cc3ccccc3)c2)[C@@H](O)[C@H]1O,active: 14.6 µM,–
COC(=O)C[C@@H]1CC[C@H](NC(=O)Nc2cccc(F)c2)[C@@H](CO)O1,inactive,–
Cc1c(NCc2cc(Cl)cc(Cl)c2O)c(=O)n(-c2ccccc2)n1C,"inconclusive [inhibitor, partial curve, poor fit]",–
CC1CCCN(S(=O)(=O)c2ccc(NC(=O)c3nc(SC(C)C)ncc3Cl)cc2)C1 (stereo not given),active: 8.2 µM,–
Cc1ccc(NS(=O)(=O)c2ccc(NC(=O)N3CCCC3)cc2)cc1C,inactive,–
CCC(Sc1nnc(-c2ccc(OC)cc2)c(-c2ccc(OC)cc2)n1)C(=O)NC1CCCCC1 (stereo not given),"inconclusive [inhibitor, single point]",–
CCn1c(C(=O)N2CCC(C(=O)NCCc3ccccc3)CC2)cc2sccc21,"inconclusive [inhibitor, single point]",–
Cc1ccc(C(=O)Nc2cccnc2)cc1S(=O)(=O)N1CCCC1,inactive,–
Cc1ccc2nc(-c3ccc(F)cc3)c(CC3CCCCC3)n2c1,"inconclusive [inhibitor, single point]",–
COc1ccccc1/C=C/c1nc(C#N)c(N2CCCCCC2)o1,"inconclusive [inhibitor, single point]",–
Cc1ccc(/C(N)=N/OC(=O)N2CCOCC2)cc1,active: 18.4 µM,–
Cc1ccc(CSc2sc(C(=O)c3ccccc3)c(N)c2C#N)cc1,"inconclusive [inhibitor, single point]",–
COc1cc(NC(=O)CCc2c(C)noc2C)c(C(=O)O)cc1OC,inactive,–
COc1ccc(C(=O)COc2ccc(C(C)=O)cc2OC)cc1OC,"inconclusive [inhibitor, single point]",–
C[C@H](CO)N1C[C@H](C)[C@@H](CN(C)C(=O)Nc2ccccc2)Oc2c(NS(=O)(=O)c3cccs3)cccc2C1=O,inactive,–
COc1ccccc1N1CCN(C(=O)c2ccc(S(=O)(=O)N3CCCC3)cc2)CC1,"inconclusive [inhibitor, partial curve]",–
CCn1c(SCC(=O)Nc2ccc(NC(C)=O)cc2)nc2c([nH]c3ccccc32)c1=O,"inconclusive [inhibitor, single point]",–
Cc1ccc(C)c(S(=O)(=O)N2CCCC2CNC(=O)C(=O)NCCN2CCOCC2)c1 (stereo not given),inactive,–

SMILES,Potency,"activity change, negative = growth inhibition"
Cc1ccc(S(=O)(=O)NCCC(c2ccc(F)cc2)c2ccco2)cc1 (stereo not given),"inconclusive [inhibitor, single point]",–
COc1ccc(CN2CCCC(C(=O)N3CCc4ccccc4C3)C2)cc1OC (stereo not given),"inconclusive [inhibitor, partial curve]",–
Cc1cc(C)c2cccnc2c1O,active: 1.26 µM,–
CCCCN(Cc1ccccc1)C(=O)c1oc(=O)c2ccccc2c1-c1ccc(C)cc1,active: 20.6 µM,–
COC(=O)/C(=C\Nc1ccc(Cl)cc1Cl)NC(=O)c1ccc(OC)cc1,active: 3.66 µM,–
CCC1CCCCN1C(=S)NC(=O)c1ccc([N+](=O)[O-])cc1 (stereo not given),"inconclusive [inhibitor, single point]",–
O=C(c1csnn1)N1CCC2(CCCN(c3ccc(-c4ccccc4)cc3)C2)CC1,"inconclusive [inhibitor, single point]",–
COc1cc2c(cc1NC(=O)Cc1ccc(C)cc1)oc1ccccc12,"inconclusive [inhibitor, single point]",–
NC(=O)c1cccc(-c2ccnc3c2CC(C(=O)NCc2ccccc2)O3)c1 (stereo not given),active: 0.58 µM,–
CCOC(=O)c1ccc(NC(=O)C(CC)Sc2nc3ncccc3[nH]2)cc1 (stereo not given),"inconclusive [inhibitor, single point]",–
COc1cccc(CNc2ccc3c(c2)ncn3C(C)C)c1OC,"inconclusive [inhibitor, single point]",–
COc1ccc(N2CC(NC(=O)c3ccc(S(=O)(=O)N4CCCC4)cc3)CC2=O)cc1 (stereo not given),inactive,–
N#Cc1c(-c2ccccc2)nc2n(-c3ccccc3)nc(C(=O)Nc3ccccc3)n2c1=O,"inconclusive [inhibitor, partial curve]",–
COc1cccc(CC(NC(C)=O)C(=O)NC2CCN(c3c(Cc4ccccc4)c(C)nc4ncnn34)CC2)c1 (stereo not given),inactive,–
O=C(COC(=O)/C=C/c1cccc(C(F)(F)F)c1)NC(=O)NCc1ccco1,inactive,–
S=C(NCCc1ccccc1)Nc1ccc(Br)cc1,"inconclusive [inhibitor, single point]",–
O=C(Nc1ccc(Cl)cc1)Nc1ccc(C(=O)N2CCOCC2)cc1,inactive,–
CCNc1nc(Nc2ccc(C)c(Cl)c2)c2cnn(C)c2n1,active: 18.4 µM,–
Cc1ccc(C)c(C(=O)CN2C(=O)C(=O)N(C3CCCC3)C2=O)c1,inactive,–
c1ccc(SCCOCCN2CCc3ccccc3C2)cc1,"inconclusive [inhibitor, single point]",–
O=C(CCCn1c(=S)[nH]c2cc3c(cc2c1=O)OCO3)N1CCN(c2ccc(Cl)cc2)CC1,"inconclusive [inhibitor, single point]",–
CC(=O)Nc1cccc(-c2ccnc3c2CC(C)(C(=O)Nc2cccc(C(C)=O)c2)O3)c1 (stereo not given),active: 5.8 µM,–
